No constants are given. Whether binding was seen depends on the method and setting. Binding seen in cells or lysates may run through a third protein. Some results given as binding are weak or reduced against the parent protein; the word gives no strength. For some assays here: Sequences can lack the tags named with a protein.
Columns and labels:
[1] = biological target: T1, PPARα (endogenous, HL1 mouse cardiomyocytes) (mouse (endogenous in HL1)) (UniProt P23204); test: co-IP; endogenous USP4 and PPARα in lysates of HL1 mouse cardiomyocytes, NRCMs and AC16 human cardiomyocytes; immunoblots
T1 sequence: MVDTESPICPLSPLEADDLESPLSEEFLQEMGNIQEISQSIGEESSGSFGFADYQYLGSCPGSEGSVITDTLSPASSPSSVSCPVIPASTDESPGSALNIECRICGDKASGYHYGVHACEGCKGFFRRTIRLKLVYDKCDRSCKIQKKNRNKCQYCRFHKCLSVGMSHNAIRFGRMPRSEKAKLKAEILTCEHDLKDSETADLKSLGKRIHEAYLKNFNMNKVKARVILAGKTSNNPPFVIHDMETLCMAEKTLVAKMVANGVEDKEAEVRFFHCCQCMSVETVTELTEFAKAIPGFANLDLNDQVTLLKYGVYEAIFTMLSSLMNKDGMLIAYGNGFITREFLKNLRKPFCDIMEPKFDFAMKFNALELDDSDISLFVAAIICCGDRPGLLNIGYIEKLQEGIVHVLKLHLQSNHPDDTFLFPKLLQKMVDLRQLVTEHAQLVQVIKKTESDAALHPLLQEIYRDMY

[2] = biological target: T2, PPARα (endogenous, neonatal rat cardiomyocytes) (rat (endogenous in NRCMs)) (UniProt P37230); test: as above
T2 sequence: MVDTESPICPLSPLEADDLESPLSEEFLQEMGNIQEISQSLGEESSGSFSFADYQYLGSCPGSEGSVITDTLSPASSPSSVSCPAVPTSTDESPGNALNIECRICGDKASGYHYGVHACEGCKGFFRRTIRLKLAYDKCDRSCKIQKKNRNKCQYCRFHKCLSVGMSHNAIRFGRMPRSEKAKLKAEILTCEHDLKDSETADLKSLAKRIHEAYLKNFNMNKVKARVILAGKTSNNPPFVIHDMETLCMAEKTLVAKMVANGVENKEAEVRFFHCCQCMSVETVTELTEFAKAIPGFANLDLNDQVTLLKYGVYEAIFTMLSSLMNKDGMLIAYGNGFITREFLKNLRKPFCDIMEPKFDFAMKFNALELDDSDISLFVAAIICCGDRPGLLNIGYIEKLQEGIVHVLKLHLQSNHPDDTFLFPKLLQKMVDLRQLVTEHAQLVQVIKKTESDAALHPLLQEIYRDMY

[3] = biological target: T3, PPARα (endogenous, AC16 human cardiomyocytes) (human (endogenous in AC16)) (UniProt Q07869); test: as above
T3 sequence: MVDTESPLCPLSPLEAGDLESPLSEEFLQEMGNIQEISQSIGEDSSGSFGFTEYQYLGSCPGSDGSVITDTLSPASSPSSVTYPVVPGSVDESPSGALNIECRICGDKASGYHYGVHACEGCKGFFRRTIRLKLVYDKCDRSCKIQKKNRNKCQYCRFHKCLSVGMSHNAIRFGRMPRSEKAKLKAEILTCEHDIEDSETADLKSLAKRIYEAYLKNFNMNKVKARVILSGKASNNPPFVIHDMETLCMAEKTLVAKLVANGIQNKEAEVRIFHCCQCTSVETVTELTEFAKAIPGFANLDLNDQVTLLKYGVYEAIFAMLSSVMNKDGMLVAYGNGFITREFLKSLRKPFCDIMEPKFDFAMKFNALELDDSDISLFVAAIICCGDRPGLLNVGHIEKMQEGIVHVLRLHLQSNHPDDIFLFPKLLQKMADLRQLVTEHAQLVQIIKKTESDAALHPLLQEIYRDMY

[4] = biological target: T4, Flag-PPARα (peroxisome proliferator-activated receptor alpha) (UniProt Q07869); test: co-IP; HEK293T cells transfected 24 hours with Flag-PPARα and Myc-USP4 (full-length or truncated), alone or in combination; lysates immunoprecipitated with Flag or Myc antibodies, blotted with Flag or Myc antibodies
T4 sequence: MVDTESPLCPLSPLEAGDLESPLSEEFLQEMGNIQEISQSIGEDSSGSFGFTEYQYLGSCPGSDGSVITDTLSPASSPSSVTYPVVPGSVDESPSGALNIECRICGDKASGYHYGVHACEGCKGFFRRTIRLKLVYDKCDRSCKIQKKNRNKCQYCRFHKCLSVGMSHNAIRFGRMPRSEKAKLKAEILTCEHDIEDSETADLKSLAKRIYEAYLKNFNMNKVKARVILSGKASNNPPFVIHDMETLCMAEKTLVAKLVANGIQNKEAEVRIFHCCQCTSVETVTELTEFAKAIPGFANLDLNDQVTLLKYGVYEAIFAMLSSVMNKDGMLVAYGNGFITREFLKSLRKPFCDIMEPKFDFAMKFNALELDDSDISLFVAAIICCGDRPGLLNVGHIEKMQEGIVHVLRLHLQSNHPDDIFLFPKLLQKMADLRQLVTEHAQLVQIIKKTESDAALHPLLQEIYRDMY

[5] = biological target: T5, Flag-PPARα with deletion of amino acids 110-194 (DBD) (UniProt Q07869); test: as above
T5 sequence: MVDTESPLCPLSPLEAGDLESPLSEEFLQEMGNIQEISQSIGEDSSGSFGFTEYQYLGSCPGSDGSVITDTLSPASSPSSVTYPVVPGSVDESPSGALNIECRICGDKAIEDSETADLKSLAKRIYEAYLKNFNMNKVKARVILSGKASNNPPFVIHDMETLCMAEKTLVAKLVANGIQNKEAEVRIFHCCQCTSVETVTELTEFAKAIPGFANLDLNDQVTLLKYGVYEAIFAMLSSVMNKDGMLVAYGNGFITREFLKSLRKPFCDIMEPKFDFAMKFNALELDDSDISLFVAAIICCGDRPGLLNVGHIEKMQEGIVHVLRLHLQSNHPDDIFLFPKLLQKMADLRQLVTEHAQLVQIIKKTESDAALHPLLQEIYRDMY

B1: USP4 (endogenous, HL1 mouse cardiomyocytes) (enzyme, UniProt P35123 1-962)
chain: MAEGRGSRERPDVETQKTELGALMGTTLQRGAQWYLIDSRWFKQWKKYVGFDSWDMYNVGEHNLFPGPIDNSGLFSDPESQTLKEHLIDELDYVLVPAEAWNKLLNWYGCVEGQQPIVRKVVEHGLFVKHCKVEVYLLELKLCENSDPTNVLSCHFSKADTIATIEKEMRKLFNIPAERETRLWNKYMSNTYEQLSKLDNTIQDAGLYQGQVLVIEPQNEDGTWPRQSLQSKSSTAPSRNFTTSSKPSASPYCSVSASLIANGDSTNSSGMHSSGVSRGGSGFSASYNCQEPPSPHIQPGLCGLGNLGNTCFMNSALQCLSNTAPLTEYFLKDEYEAEINRDNPLGMKGEIAEAYAELIKQMWSGRDTHVAPRMFKTQVGRFAPQFSGYQQQDSQELLAFILDGLHEDLNRVKKKPYLEPKDANGRPDAVVAKEAWENHRLRNDSVIVDTFHGLFKSTLVCPECAKVSVTFDPFCYLTLPLPLKKDRIMEVFLVPADPQCRPIQYRVTVPLMGAISDLCEALSKLSGIAAENMVVTDVYNHRFHKIFQMDEGLSHITPRDDIFVYEVCNTSMDGSECITLPVYFREKKSRPSSASSGAVLYGQPLLVSVPKHKLTLESLYQAVCDRISRYIKQPLPDEFLSSPLEPGACNGSRSSYEGDEEEEMDHQEEGKEQLSEVEGSGEDDQGDDHSESAQKVKGQPRHKRLFTFSLVNSCGTADINSLATDGKLLKLNSRSTLAIDWDSETRSLYFDEQESEACEKHLSMSQPQKKKKAAVALRECIELFTTMETLGEHDPWYCPTCKKHQQATKKFDLWSLPKILVVHLKRFSYNRYWRDKLDTVVEFPVRALNMSEFVCDRSARPYVYDLIAVSNHYGAMGVGHYTAYAKNRLNGKWYYFDDSSVSLASEDQIVTKAAYVLFYQRRDDECSSTSSLGSFPGSDGGVKLSSSHQGMGDEEAYNMDTN
binding [1]: binds

B2: USP4 (endogenous, neonatal rat cardiomyocytes) (enzyme, UniProt B2GUZ1 1-961)
chain: MAEGRGTHERPDVETQKTELGALMGTTLQRGAQWYLIDSRWFKQWKKYVGFDSWDMYNVGEHNLFPGPIDNSGLFSDPESQTLKEHLIDELDYVLVPTEAWNKLLNWYGCVEGQQPIVRKVVEHGLFVKHCKVEVYLLELKLCENSDPTNVLSCHFSKADTIATIEKEMRKLFNIPAERETRLWNKYMSNTYEQLSKLDNTIQDAGLYQGQVLVIEPQNEDGTWPRQTLQSKSSTAPSRNFTTSSKPSASPYSSMSASLIANGDSTNSSGMHNSGVSRGGAGFSASYNCQEPPSPHIQPGLCGLGNLGNTCFMNSALQCLSNTGPLTEYFLKDEYEAEINRDNPLGMKGEIAEAYAELIKQMWSGRDTHVAPRMFKTQVGRFAPQFSGYQQQDSQELLAFILDGLHEDLNRVKKKPYLEPKDANGRPDAVVAKEAWENHRLRNDSVIVDTFHGLFKSTLVCPECAKVSVTFDPFCYLTLPLPLKKDRIMEVFLVPADPHCRPIQYRVTVPLMGAISDLCEALSKLSGIAAENMVVTDVYNHRFHKIFQMDEGLSHITPRDDIFVYEICTTPMDGSEYITLPVYFREKKSRPSSTSSGAVLYGQPLLVSVPKHRLTLESLYQAVCERISRYIKQPLPEEFLSSPLEPGACNGSRGSYEGDEEEMDHQEEGKEQLSEVEESGEDSQGGDPTETTQKAKGPPRHKRLFTFSLVNSCGTADINSLATDGKLLKLNSRSTLAIDWDSETRSLYFDEQESEACEKHTSMSQPQKKKKAAIALRECIELFTTMETLGEHDPWYCPTCKKHQQATKKFDLWSLPKILVVHLKRFSYNRYWRDKLDTVVEFPVRALNMSEFVCDRAARPYVYDLIAVSNHYGAMGVGHYTAYAKNRLNGKWYYFDDSSVSLASEDQIVTKAAYVLFYQRRDDECPSTSSPVSFPGSDGGAKLSSSQQDLGEEEAYTMDTN
binding [2]: binds

B3: USP4 (endogenous, AC16 human cardiomyocytes) (enzyme, UniProt Q13107 1-963)
chain: MAEGGGCRERPDAETQKSELGPLMRTTLQRGAQWYLIDSRWFKQWKKYVGFDSWDMYNVGEHNLFPGPIDNSGLFSDPESQTLKEHLIDELDYVLVPTEAWNKLLNWYGCVEGQQPIVRKVVEHGLFVKHCKVEVYLLELKLCENSDPTNVLSCHFSKADTIATIEKEMRKLFNIPAERETRLWNKYMSNTYEQLSKLDNTVQDAGLYQGQVLVIEPQNEDGTWPRQTLQSKSSTAPSRNFTTSPKSSASPYSSVSASLIANGDSTSTCGMHSSGVSRGGSGFSASYNCQEPPSSHIQPGLCGLGNLGNTCFMNSALQCLSNTAPLTDYFLKDEYEAEINRDNPLGMKGEIAEAYAELIKQMWSGRDAHVAPRMFKTQVGRFAPQFSGYQQQDSQELLAFLLDGLHEDLNRVKKKPYLELKDANGRPDAVVAKEAWENHRLRNDSVIVDTFHGLFKSTLVCPECAKVSVTFDPFCYLTLPLPLKKDRVMEVFLVPADPHCRPTQYRVTVPLMGAVSDLCEALSRLSGIAAENMVVADVYNHRFHKIFQMDEGLNHIMPRDDIFVYEVCSTSVDGSECVTLPVYFRERKSRPSSTSSASALYGQPLLLSVPKHKLTLESLYQAVCDRISRYVKQPLPDEFGSSPLEPGACNGSRNSCEGEDEEEMEHQEEGKEQLSETEGSGEDEPGNDPSETTQKKIKGQPCPKRLFTFSLVNSYGTADINSLAADGKLLKLNSRSTLAMDWDSETRRLYYDEQESEAYEKHVSMLQPQKKKKTTVALRDCIELFTTMETLGEHDPWYCPNCKKHQQATKKFDLWSLPKILVVHLKRFSYNRYWRDKLDTVVEFPIRGLNMSEFVCNLSARPYVYDLIAVSNHYGAMGVGHYTAYAKNKLNGKWYYFDDSNVSLASEDQIVTKAAYVLFYQRRDDEFYKTPSLSSSGSSDGGTRPSSSQQGFGDDEACSMDTN
binding [3]: binds

B4: Myc-USP4 (ubiquitin specific protease 4) (enzyme, UniProt Q13107 1-963)
chain: MAEGGGCRERPDAETQKSELGPLMRTTLQRGAQWYLIDSRWFKQWKKYVGFDSWDMYNVGEHNLFPGPIDNSGLFSDPESQTLKEHLIDELDYVLVPTEAWNKLLNWYGCVEGQQPIVRKVVEHGLFVKHCKVEVYLLELKLCENSDPTNVLSCHFSKADTIATIEKEMRKLFNIPAERETRLWNKYMSNTYEQLSKLDNTVQDAGLYQGQVLVIEPQNEDGTWPRQTLQSKSSTAPSRNFTTSPKSSASPYSSVSASLIANGDSTSTCGMHSSGVSRGGSGFSASYNCQEPPSSHIQPGLCGLGNLGNTCFMNSALQCLSNTAPLTDYFLKDEYEAEINRDNPLGMKGEIAEAYAELIKQMWSGRDAHVAPRMFKTQVGRFAPQFSGYQQQDSQELLAFLLDGLHEDLNRVKKKPYLELKDANGRPDAVVAKEAWENHRLRNDSVIVDTFHGLFKSTLVCPECAKVSVTFDPFCYLTLPLPLKKDRVMEVFLVPADPHCRPTQYRVTVPLMGAVSDLCEALSRLSGIAAENMVVADVYNHRFHKIFQMDEGLNHIMPRDDIFVYEVCSTSVDGSECVTLPVYFRERKSRPSSTSSASALYGQPLLLSVPKHKLTLESLYQAVCDRISRYVKQPLPDEFGSSPLEPGACNGSRNSCEGEDEEEMEHQEEGKEQLSETEGSGEDEPGNDPSETTQKKIKGQPCPKRLFTFSLVNSYGTADINSLAADGKLLKLNSRSTLAMDWDSETRRLYYDEQESEAYEKHVSMLQPQKKKKTTVALRDCIELFTTMETLGEHDPWYCPNCKKHQQATKKFDLWSLPKILVVHLKRFSYNRYWRDKLDTVVEFPIRGLNMSEFVCNLSARPYVYDLIAVSNHYGAMGVGHYTAYAKNKLNGKWYYFDDSNVSLASEDQIVTKAAYVLFYQRRDDEFYKTPSLSSSGSSDGGTRPSSSQQGFGDDEACSMDTN
binding [4]: binds
binding [5]: no binding

— publication PMC12199328
